PubChem BioAssay AID651820 (National Center for Advancing Translational Sciences (NCATS), 2012)
The whole screen tested about 340,000 compounds, of which about 12,000 (3.5%) were called active. The shares of active, inactive and inconclusive entries below differ from those in the screen. Calls come from the whole dose curve; as a rule, active = well fitted inhibition curve with a large enough effect; inconclusive = small, poorly fitted or top-dose-only effect, or another doubt; inactive = no such curve, though single readings can be large or run the other way. No potency is given beside an inconclusive call; the fits are too rough.

Experiment: qHTS Assay for Inhibitors of Hepatitis C Virus (HCV)
Conditions: Huh7.5.1 HCVcc-Cre (HCVcc is cell-culture hepatitis C virus) infection, luciferase reporter, 44 h; activity change, negative = inhibition: at 41.8 µM (top of the series) unless noted
How it was run: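 Compounds are dispensed onto cells plated 4 h earlier at 1,000 per well, with HCVcc-Cre virus (about 0.5 moi) added next. Following 44 h of culture, luminescent signal is measured for 15 sec after 15 min with substrate at room temperature.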
% is set by controls: 0 for no effect and ±100 for the full control effect; potency is the fitted concentration of half-maximal effect; tags give direction and shape of the fitted curve.

SMILES	Potency	activity change, negative = inhibition
CCC1Sc2ccc(S(=O)(=O)N3CCN(c4ccccc4)CC3)cc2NC1=O (stereo not given)	inconclusive [inhibitor, single point]	–
CC(=O)N1CC2(CC(=O)OC(C)C)CN(C(C)=O)CC(CC(=O)OC(C)C)(C1)C2=O	inactive	–
Oc1cccc2ccc(/C=C/c3ccccc3Br)nc12	inconclusive [inhibitor, single point]	–
CCNc1nc(NCC)n2c(SCC(=O)N(CC)C3CCCCC3)nnc2n1	–	inactive: -6.22%
COc1ccc(-n2c(SCC(=O)Nc3ccc(C(N)=O)cc3)nc3ccccc3c2=O)cc1OC	–	inactive: -14.4%
COC(=O)c1cc(-c2ccc(F)cc2)n(-c2ccccc2)n1	inconclusive [inhibitor, single point]	–
C(=NOCc1ccccc1)c1cccnc1	–	inactive: -0.523%
O=S(=O)(c1ccc2ccccc2c1)N1CCN(C(=S)Nc2ccc(F)cc2)CC1	inconclusive [inhibitor, single point]	–
COCCN(Cc1cc2cc(C)ccc2n2nnnc12)C(=S)Nc1cccc(C)c1	active: 11.2 µM	–
COc1ccc(Nc2nc3c(C)cccc3cc2C#N)cc1	inconclusive [inhibitor, single point]	–
Cc1cc(C)c(S(=O)(=O)c2ccc(F)cc2C)c(Cl)n1	inconclusive [inhibitor, single point]	–
Cc1ncc2c(n1)-c1cc(F)ccc1SC2	–	inactive: -4.51%
COC(=O)c1ccc(CSc2ncnc3sc(C)c(C)c23)o1	inconclusive [inhibitor, single point]	–
COc1cccc(NC(=O)/C=C/c2ccc(S(=O)(=O)N3CCOCC3)cc2)c1	inconclusive [inhibitor, partial curve]	–
O=C1CCC(C(=O)Nc2cccc(Br)c2)N1 (stereo not given)	–	inactive: 10.5%
CCCN1CCO[C@@H]2c3cc(O)ccc3OC[C@H]21	inconclusive [inhibitor, single point]	–
COc1cc(NC(=O)c2cccs2)c(C(=O)OCC(=O)NC(C)c2ccccc2)cc1OC (stereo not given)	inconclusive [inhibitor, partial curve]	–
CCOC(=O)N1CCc2c(sc(NC(=O)CN3CCN(C)CC3)c2C(=O)Nc2ccccc2)C1	inconclusive [inhibitor, single point]	–
COc1ccccc1-c1nc(C(=O)NCC2CCCO2)cc2c1[nH]c1ccccc12 (stereo not given)	inconclusive [inhibitor, partial curve]	–
Cc1ccc(S(=O)(=O)Nc2nc3ccccc3nc2NCC2CCCO2)cc1C (stereo not given)	–	inactive: 8.79%
Cc1ccc(OCc2ccc(C(=O)Nc3c(C)nn(Cc4c(F)c(F)c(F)c(F)c4F)c3C)o2)c([N+](=O)[O-])c1	active: 15.8 µM	–
CC1CCN(c2nc(NCc3ccco3)nc(N)c2[N+](=O)[O-])CC1	inconclusive [inhibitor, single point]	–
C[C@H](NC(=O)c1nc[nH]c1C(=O)NCCCCCNC(=O)OC(C)(C)C)C(=O)OC(C)(C)C	active: 11.2 µM	–
O=C(O)c1ccc(N/N=C/c2cn(Cc3ccc(F)cc3)c3ccccc23)cc1	–	inactive: -1.99%

SMILES	Potency	activity change, negative = inhibition
CC(=O)c1ccc(-n2nnnc2SCC(=O)NC2CCCCC2)cc1	–	inactive: -13.9%
Cc1ccc(O)c(C2=Nc3ccccc3N=C(c3cccc([N+](=O)[O-])c3)C2)c1	inconclusive [inhibitor, single point]	–
CCn1cc(C(=O)NCc2cccc(F)c2)c(=O)c2cc(F)c(N3CCN(C(=O)c4ccco4)CC3)cc21	inconclusive [inhibitor, partial curve, poor fit]	–
Cc1cc(NCCc2ccc(Cl)cc2)n2ncnc2n1	inconclusive [inhibitor, partial curve, poor fit]	–
COc1ccc(NC(=O)C2CCCN(c3c4c(nc5ncnn35)CCC4)C2)cc1 (stereo not given)	inconclusive [inhibitor, single point]	–
COC(=O)Cn1c2ccc(OC)cc2c2nc3ccccc3nc21	–	inactive: -1.45%
FC(F)(F)c1nnc2sc(-c3ccncc3)nn12	inconclusive [inhibitor, single point]	–
CCN(CC)c1ccc(-c2c(C#N)c(N)nc(OC)c2C#N)cc1	inconclusive [inhibitor, partial curve]	–
O=C1OCC(CO)(CO)N=C1NNc1ccccc1[N+](=O)[O-]	–	inactive: 12.3%
COCC(=O)NC1CC(C)(C)Cc2c1cnn2-c1ccc(F)cc1 (stereo not given)	–	inactive: 5.38%
Cc1ccc(OCC(=O)N(Cc2ccccc2)c2c(N)n(Cc3ccccc3)c(=O)[nH]c2=O)c(C)c1	inconclusive [inhibitor, single point]	–
COc1ccc(-n2nnnc2SC(C)C(=O)NCC(=O)Nc2ccc(F)c(F)c2F)cc1 (stereo not given)	–	inconclusive: -30.1% [inhibitor]
CC1(C)Oc2ccc3ccc(=O)oc3c2C[C@H]1O[C@@H]1O[C@H](CO)[C@@H](O)[C@H](O)[C@H]1O	–	inactive: 23.1%
CCSc1cc(C)nc2c(-c3ccc(Cl)cc3)c(C)nn12	inconclusive [inhibitor, partial curve]	–
C/C(CC(C)(C)C1CCCCC1)=N\NC(N)=S	active: 2.82 µM	–
Cn1c(=O)c2c(nc(NCc3ccco3)n2Cc2ccccc2Cl)n(C)c1=O	inconclusive [inhibitor, partial curve]	–
COC(=O)c1ccccc1NC(=O)c1cccc(COc2ccccc2Cl)c1	inconclusive [inhibitor, full curve, poor fit]	–
COc1ccc(NC(=O)C2CC(c3cc(OC)c(OC)c(OC)c3)=NO2)cc1OC (stereo not given)	–	inactive: -9.57%
Cc1cc(N2C(=O)c3ccccc3C2=O)n(C)n1	–	inactive: 16.4%
CCOc1ccc(/C=N/NC(=O)NC23CC4CC(CC(C4)C2)C3)cc1O	inconclusive [inhibitor, single point]	–
CCOc1nc(NCc2ccco2)nc(Nc2ccc(OC)cc2)n1	inconclusive [inhibitor, single point]	–
COc1ccc(N(Cc2ccccc2)C(=O)CSc2nnc(Cn3nnc4ccccc43)o2)cc1	active: 14.1 µM	–
COc1ccccc1NC(=O)/C=C/c1ccc(OC)c(S(=O)(=O)N2CCOCC2)c1	inconclusive [inhibitor, partial curve]	–
Cc1ccc(-n2cc(CNCCc3ncc(C)[nH]3)c(-c3ccc(F)cc3)n2)cc1	inconclusive [inhibitor, single point]	–

SMILES	Potency	activity change, negative = inhibition
Cc1ccc(-c2ccccc2NC(=O)CS(=O)CC(=O)Nc2ccc(C)c(Cl)c2)o1 (stereo not given)	inconclusive [inhibitor, single point]	–
CCCn1c(SCC(=O)Nc2cc(Cl)ccc2OC)n[nH]c1=O	active: 10 µM	–
O=C(Nc1ccnn1C1CCN(C(=O)c2cccc(C(F)(F)F)c2)CC1)C1CC1	–	inactive: 8.47%
C=C1C(=O)C=C2CN(C(=O)c3ccccc3)[C@@](Cc3ccc(F)cc3)(C(=O)OC)[C@@H]12	inconclusive [inhibitor, single point]	–
COc1ccc(NC(=O)CSc2nc3ccccc3nc2N2CCCC2)cc1Cl	inconclusive [inhibitor, partial curve]	–
COc1ccc(NS(=O)(=O)c2ccc3c(c2)N(C(C)=O)CCO3)c(OC)c1	inconclusive [inhibitor, single point]	–
CC(C)(C)OC(=O)N1CCCC(C(=O)Nc2cccc(C(=O)NCCCCc3ccccc3)c2)C1 (stereo not given)	–	inactive: -17.6% [at 8.37 µM]
CCN(CC)C(=O)CN(c1cc2c(cc1OC)oc1ccccc12)S(=O)(=O)c1ccc(C)cc1	inconclusive [inhibitor, full curve, poor fit]	–
CC(C1CC1)N(Cc1ccccc1)C(=S)Nc1ccccc1Cl (stereo not given)	inconclusive [inhibitor, partial curve]	–
O=C(NC(=S)N1CCN(c2ccccn2)CC1)c1ccccc1	–	inactive: 9.62%
CC(CNc1ccc([N+](=O)[O-])c2cccnc12)Nc1c([N+](=O)[O-])cc(C(F)(F)F)cc1[N+](=O)[O-] (stereo not given)	inconclusive [inhibitor, partial curve]	–
COc1cc2c3c(c1)C(C)=CC(C)(C)N3C(=O)C2=O	–	inactive: -10%
COc1cc(C(=O)Nc2ccc3nc(N4CCN(C)CC4)cc(C)c3c2)cc(OC)c1OC	inconclusive [inhibitor, partial curve]	–
Cc1cc(=O)[nH]c(SCCOc2ccc(OC(C)C)cc2)n1	–	inactive: -3.39%
COc1ccc(CCNC(=O)C2CCC(=O)N2S(=O)(=O)c2ccc(C)cc2)cc1 (stereo not given)	–	inactive: -3.2%
COc1ccc(-c2nc3ccccn3c2CN2CCN(c3ccccc3F)CC2)cc1	inconclusive [inhibitor, single point]	–
CCN(Cc1ccc(C#CCCO)cc1)CC1CCCN(CCc2cccc(OC)c2)C1 (stereo not given)	active: 11.2 µM	–
COc1ccc(-c2nnc(SCC(=O)NC(C)c3ccccc3)o2)cc1OC (stereo not given)	inconclusive [inhibitor, single point]	–
O=C(Nc1cccc(C(=O)NC2CC2)c1)c1ccc(F)c(S(=O)(=O)N2CCOCC2)c1	inconclusive [inhibitor, single point]	–
CCOC(=O)c1[nH]c2ccc(OCC)cc2c1NC(=O)CN1CCN(c2ccccc2)CC1	–	inactive: 8.82%
COc1ccc(C(=O)Nc2ccc(C)cn2)cc1S(=O)(=O)N1CCCc2ccccc21	active: 4.47 µM	–
COc1ccc(CN(C)C(=O)c2cc(S(=O)(=O)N3CCCCCC3)ccc2OC)cc1OC	–	inactive: -16.8%
